From patent publication US20220411514A1, “ANTI-GAL3 ANTIBODIES AND METHODS OF USE FOR INSULIN RESISTANCE” (TrueBinding, Inc., priority 2021, published 2022)
Substitutions are numbered along the chain they refer to. In names and notes the source's numbering stands.

Assays:
hGal3 peptide = molecular target: T1, hGal3 peptide (Homo sapiens, UniProt P17931); assay: Gal3 peptide library binding ELISA (Example 2)
T1 construct: a library of 24 amino acid peptides representing portions of Gal3
Procedure: To identify the epitopes to which Gal3 antibodies with and without Gal3-INSR blocking activity bound, a library of 24 amino acid peptides representing portions of Gal3, depicted in FIG. 18, was produced and the ability of each peptide to bind Gal3 antibodies was evaluated by ELISA. At least 2 μg/ml of hGal3 peptide in 50 μl of PBS or 0.1 μg/ml of full-length human Gal3 protein (GenScript) and human Galectin-3 protein (Acro Biosystems, GA3-H5129) were diluted in PBS (Corning, 21-030-CM) to concentrations of at least 2 μg/ml or 0.1 μg/ml, respectively, and added to the wells of a 96-well ELISA plate (Thermo Fisher, 44-2404-21). After incubating the plate at 4° C. overnight, the plate was washed three times with PBST (PBS with 0.05% Tween 20 [VWR, 0777]). The plate was then blocked for an hour with 2% BSA (EMD Millipore, 126609) in PBST at room temperature with gentle rocking. Thereafter, the 2% BSA in PBST was discarded and human Galectin-3 hybridoma supernatants or antibodies were diluted in 2% BSA in PBST to concentrations of at least 0.1 μg/ml and added to the wells. The plate was incubated for an hour at room temperature with gentle rocking and then washed three times with PBST. Afterwards, Goat Anti-Mouse IgG-HRP (Jackson ImmunoResearch, 115-036-1461) or Goat Anti-Rat IgG HRP (Abcam, ab205720) diluted in 2% BSA in PBST (1:4000) were added to the wells. The plate was incubated for 30 minutes to 1 hour at room temperature with gentle rocking and then washed three times with PBST. TMB substrate (Thermo Scientific, 34029) was then added to each well. The reaction was stopped with 1M HCl (JT Baker, 5620-02) and read using a plate reader (Molecular Devices) at absorbance of 450 nm.

Human Gal3 peptides = molecular target: T2, Human Gal3 peptides (Homo sapiens, UniProt P17931); assay: Gal3 peptide binding ELISA (Example 8); conditions: antibody 5 μg/mL
T2 construct: purchased LifeTein custom order
Procedure: Gal3 peptide binding activity of additional exemplary anti-Gal3 antibodies was assessed with the same peptides as described in FIG. 18 (SEQ ID NOs: 3-26). Human Gal3 peptides (LifeTein, custom order) and human Gal3 proteins (R&D Systems, 8259-GA; TrueBinding, QCB200349) were diluted in PBS (Corning, 21-030-CM) to concentrations of at least 100 μg/mL (peptides) or 1 μg/mL (proteins), and added to the wells of several 96-well ELISA plates (Thermo Fisher, 44-2404-21). After incubating the plates at 4° C. overnight, the plates were washed three times with PBST (PBS with 0.05% Tween 20 [VWR, 0777]). The plates were then blocked for an hour with 2% BSA (EMD Millipore, 126609) in PBST at room temperature with gentle rocking. Thereafter, the 2% BSA in PBST was discarded and Gal3-binding antibodies (reformatted hIgG4 [S228P]) were diluted in 2% BSA in PBST to concentrations of 5 μg/mL and added to the wells. The plates were incubated for an hour at room temperature with gentle rocking and then washed three times with PBST. Afterwards, Peroxidase AffiniPure F(ab′)2 Fragment Goat Anti-Human IgG (H+L) polyclonal antibody (Jackson ImmunoResearch, 109-036-003), was diluted in 2% BSA in PBST (1:4000) and added to the wells. The plates were incubated for 1 hour at room temperature with gentle rocking and then washed three times with PBST. TMB substrate (Thermo Scientific, 34029) was then added to each well. The reaction was stopped with 1M HCl (JT Baker, 5620-02) and read using a plate reader (Molecular Devices) at absorbance of 450 nm.

human Gal3 = molecular target: T3, human Gal3 (Homo sapiens, UniProt P17931); assay: Epitope binning, sandwich format, SPR Carterra LSA (Example 8); assay type: binding
T3 construct: 6xHis (linker-spaced) (C); purchased AcroBio (Acro Biosystems) GA3-H5129
Procedure: The epitope binning assay was done in a sandwich format on the high-throughput SPR-based Carterra LSA unit (CarterraBio, Salt Lake City, Utah). First, the purified antibodies were diluted to 10 μg/ml concentration in 10 mM NaOAc (pH 5.0) and then were covalently coupled via amine group to HC200M chip activated by EDC and S-NHS to immobilize antibodies to different positions of a 384-spot array. One hundred thirty-eight binning cycles were run on the array of immobilized antibodies. In each cycle, first, human Gal3 (AcroBio GA3-H5129) was injected over the entire array to bind to different antibodies (primary antibody), followed by one antibody (secondary antibody) selected among the panel of 150 anti-GAL3 antibodies tested. At the end of each cycle, the array was regenerated by 10 mM Glycine (pH 2.0) to remove bound antigen and secondary antibody from the array. The data analysis was done using the Epitope software by CarterraBio.

T3 sequence (P17931 whole entry): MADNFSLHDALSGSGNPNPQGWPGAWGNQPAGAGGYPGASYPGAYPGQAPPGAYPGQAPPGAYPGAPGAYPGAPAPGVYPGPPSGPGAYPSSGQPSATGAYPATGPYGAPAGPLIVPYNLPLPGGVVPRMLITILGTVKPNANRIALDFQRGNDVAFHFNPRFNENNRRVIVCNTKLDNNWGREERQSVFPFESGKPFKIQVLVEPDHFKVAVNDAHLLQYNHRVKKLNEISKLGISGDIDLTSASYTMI

B1: 14H10.2C9: anti-Gal3 antibody (antibody)
heavy: QIQLVQSGPELKKPGETVKISCKASGYTFTTYGMGWVKQAPGKDLKWMGWINTYSGVPTYADDFKGRFAFSLETSASTAYLQISNLKNEDTATYFCSTPYEYDGAYWGQGTLVTVSAAKTTPPSVYPLAPVCGDTTGSSVTLGCLVKGYFPEPVTLTWNSGSLSSGVHTFPAVLQSDLYTLSSSVTVTSSTWPSQSITCNVAHPASSTKVDKKIEPRGPTIKPCPPCKCPAPNAAGGPSVFIFPPKIKDVLMISLSPIVTCVVVDVSEDDPDVQISWFVNNVEVHTAQTQTHREDYNSTLRVVSALPIQHQDWMSGKEFKCKVNNKDLGAPIERTISKPKGSVRAPQVYVLPPPEEEMTKKQVTLTCMVTDFMPEDIYVEWTNNGKTELNYKNTEPVLDSDGSYFMYSKLRVEKKNWVERNSYSCSVVHEGLHNHHTTKSFSRTPGK
light: DVVMTQTPLTLSVTIGQPASISCKSSQSLFDSDGKTYLNWLLQRPGQSPKRLIYLVSKLDSGVPDRFTGSGSGTDFTLKISRVEAEDLGVYYCWQGTHFPLTFGAGTKLEMKRADVAPTVSIFPPSSEQLTSGGASVVCFLNNFYPKDINVKWKIDGSERQNGVLNSWTDQDSKDSTYSMSSTLTLTKDEYERHNSYTCEATHKTSTSPIVKSFNRNEC
modifications: 14H10.2C9 heavy chain peptide sequence; 14H10.2C9 light chain peptide sequence
notes: anti-Gal3 antibody
binding to Gal3 peptide 6 (amino acids 51-70, SEQ ID NO: 8) (hGal3 peptide): bound | binding to Gal3 peptide 7 (amino acids 61-80, SEQ ID NO: 9) (hGal3 peptide): bound | binding to Gal3 peptide 6 (SEQ ID NO: 8) (Human Gal3 peptides): bound | binding to Gal3 peptide 7 (SEQ ID NO: 9) (Human Gal3 peptides): bound

B2: 3B11.2G2: anti-Gal3 antibody (antibody)
heavy: QIQLVQSGPELKKPGETVKISCKTSGYKFKTYVMSWVKQAPGKALKWMGWINTYSGVPTYADDFKGRFAFSLETSASTAYLEIINLKNEDTATYFCARDGNYGDPMDYWGQGTSVTVSSAKTTPPSVYPLAPVCGDTTGSSVTLGCLVKGYFPEPVTLTWNSGSLSSGVHTFPAVLQSDLYTLSSSVTVTSSTWPSQSITCNVAHPASSTKVDKKIEPRGPTIKPCPPCKCPAPNAAGGPSVFIFPPKIKDVLMISLSPIVTCVVVDVSEDDPDVQISWFVNNVEVHTAQTQTHREDYNSTLRVVSALPIQHQDWMSGKEFKCKVNNKDLGAPIERTISKPKGSVRAPQVYVLPPPEEEMTKKQVTLTCMVTDFMPEDIYVEWTNNGKTELNYKNTEPVLDSDGSYFMYSKLRVEKKNWVERNSYSCSVVHEGLHNHHTTKSFSRTPGK
light: B1 light with T14A, F30L, D31Y, S32T, D33N, T68S, W94L, G96S, M111L
modifications: 3B11.2G2 heavy chain peptide sequence; 3B11.2G2 light chain peptide sequence
notes: anti-Gal3 antibody
binding to Gal3 peptide 4 (amino acids 31-50, SEQ ID NO: 6) (hGal3 peptide): bound | binding to Gal3 peptide 6 (amino acids 51-70, SEQ ID NO: 8) (hGal3 peptide): bound | binding to Gal3 peptide 4 (SEQ ID NO: 6) (Human Gal3 peptides): bound | binding to Gal3 peptide 6 (SEQ ID NO: 8) (Human Gal3 peptides): bound

B3: 13A12.2E5: anti-Gal3 antibody (antibody)
heavy: B2 heavy
light: B1 light with T14A, F30L, D31Y, S32T, D33N, V56L, T68S, G69A, W94L, G96S
modifications: 13A12.2E5 heavy chain peptide sequence; 13A12.2E5 light chain peptide sequence
notes: anti-Gal3 antibody
binding to Gal3 peptide 6 (amino acids 51-70, SEQ ID NO: 8) (hGal3 peptide): bound | binding to Gal3 peptide 4 (SEQ ID NO: 6) (Human Gal3 peptides): bound | binding to Gal3 peptide 6 (SEQ ID NO: 8) (Human Gal3 peptides): bound

B4: F847C.21H6: anti-Gal3 antibody, VH SEQ ID NO: 367, VL SEQ ID NO: 440 (antibody, V domains shown)
VH: QIQLVQSGPELKKPGETVKISCKASGYTFTIFGMNWVKQAPGKGLKWMGWVNTYTGEPTYADDFKGRFAFSLETSASTAYLQINNLKNEDTATYFCARGWFAYWGQGTLVTVSA
VL: DVVMTQTPLTLSVTIGQPASISCKSSRSLLDSDGKTYLNWLLQRPGQSPKRLIYLVSKLDSGVPDRFTGSGSGTDFTLKISRVEAEDLGVYYCWQGTHFPQTFGGGTKLEIN
modifications: VH-71 Peptide Sequence; VL-67 Peptide Sequence
epitope bin (mutual competitive binding for Gal3) (human Gal3): 1 | binding to Gal3 peptide 5 (SEQ ID NO: 7) (Human Gal3 peptides): bound | binding to Gal3 peptide 6 (SEQ ID NO: 8) (Human Gal3 peptides): bound

B5: 847.10C9: anti-Gal3 antibody (antibody, V domains shown)
VH: EVQLQQSGAELVRPGTSVKVSCKASEYAFNNYMMEWVKQRPGQGLEWIGVINPGSGATNYNENFKDKATLTADKSSTTAYMQLSSLTSDDSAVYFCTYNDLGYWGQGTLVTVSA
VL: DVVMTQTPLTLSVTIGQPASISCKSSQSLLYSDGKTYLNWLLQRPGQSPKRLIYLVSQLDSGVPDRFTGSGSGTDFTLKISRVEADDLGVYCCVQGTHLPTFGGGTKLEIK
epitope bin (mutual competitive binding for Gal3) (human Gal3): CRD | binding to Gal3 peptide 2 (SEQ ID NO: 4) (Human Gal3 peptides): bound | binding to Gal3 peptide 3 (SEQ ID NO: 5) (Human Gal3 peptides): bound | binding to Gal3 peptide 9 (SEQ ID NO: 11) (Human Gal3 peptides): bound | binding to Gal3 peptide 10 (SEQ ID NO: 12) (Human Gal3 peptides): bound

B6: 847.12C4: anti-Gal3 antibody (antibody, V domains shown)
VH: QVQLKESGPDLVQPSQTLSLTCTVSGFSLTIYGVHWVRQPPGKGLEWVGTVAWDDKKYYNSPLQSRLSISRDTSKNQVFLKLSSLQTEDTAMYYCTMTGGPINYWGPGTSVTVSS
VL: B5 VL with G16E, P18T, Y31D, S32R, Q58K, D86E, C92Y, V94W, L99F
binding to Gal3 peptide 2 (SEQ ID NO: 4) (Human Gal3 peptides): bound | binding to Gal3 peptide 3 (SEQ ID NO: 5) (Human Gal3 peptides): bound | binding to Gal3 peptide 9 (SEQ ID NO: 11) (Human Gal3 peptides): bound | binding to Gal3 peptide 10 (SEQ ID NO: 12) (Human Gal3 peptides): bound

B7: 847.27B9: anti-Gal3 antibody (antibody, V domains shown)
VH: QIQLVQSGPELKKPGETVKISCKASGYTFTNYGMNWVKQAPGKGLKWMGWINTNTGEPTYAEEFKGRFAFSLETSASTAYLQINYLKNEDTATFFCARLDYDYDEDYWGQGTTLTVSS
VL: B4 VL with I15L, K24R, R27Q, K58R, Q101F, N112K
binding to Gal3 peptide 4 (SEQ ID NO: 6) (Human Gal3 peptides): bound

B8: F846TC.16B5: anti-Gal3 antibody (antibody)
heavy: QIQLVQSGPELKKPGETVKISCKASGYTFTNYGMNWVKQAPGKGLKWMGWINTYTGEPAYADDFKGRFAFSLETSASTAYLQINNLKNEDMATYFCARWGGYDGDYYAMDYWGQGTSVTVSSASTKGPSVFPLAPCSRSTSESTAALGCLVKDYFPEPVTVSWNSGALTSGVHTFPAVLQSSGLYSLSSVVTVPSSSLGTKTYTCNVDHKPSNTKVDKRV[in this place human IgG4 Fc with S228P (EU numbers)]
light: NIMMTQSPSSLAVSAGEKVTMSCKSSQSVLYSSNQKNYLAWYQQKPGQSPKLLIYWASTRESGVPDRFTGSGSGTDFTLTISSVQAEDLAVYYCHQYLSSLTFGAGTKLELKRTVAAPSVFIFPPSDEQLKSGTASVVCLLNNFYPREAKVQWKVDNALQSGNSQESVTEQDSKDSTYSLSSTLTLSKADYEKHKVYACEVTHQGLSSPVTKSFNRGEC
modifications: F846TC.16B5 heavy chain peptide sequence; F846TC.16B5 light chain peptide sequence
notes: anti-Gal3 antibody
binding to Gal3 peptide 6 (SEQ ID NO: 8) (Human Gal3 peptides): bound | binding to Gal3 peptide 17 (SEQ ID NO: 19) (Human Gal3 peptides): bound
